Assay results published in patent publication US6149912A (priority 1998, dated 2000).
Where two headings read alike, the source gives them in different places.

Legend:
[1] = mouse, in vivo
S. typhimurium = format: cell-based, Salmonella typhimurium
S. typhimurium SL1344 = format: in vivo, Salmonella typhimurium (in CF-1 mice); conditions: 5 days post challenge; for Survival rate: single 1 μg/mouse i.p. 5 days before i.p. challenge (4 × 10^3 CFU, 25 LD50); for Liver Culture / Spleen Culture: single 1 μg/mouse i.p. 5 days before i.p. challenge (25 LD50)
Candida albicans Amb 23A = conditions: 1 μg 3x i.p. every other day; for Survival rate: 5 days post i.v. challenge (1.8×10^7 CFU)
Description: (§1) Experiments were conducted to determine the level of infection in selected organs of mice challenged with Candida albicans Amb 23A. Groups of mice were given solanine or chaconine i.p. every other day to receive three infections. Mice were challenged i.v. with 2×10^6 CFU Candida albicans Amb 23A the next day after the last injection of glycoalkaloid. The number of microorganisms present in various organs were calculated 24 hours post challenge and the results are shown in Table 5.
as §1, with “with 1.8×10^7” for “with 2×10^6”, “The survival rate and the” for “The”, “organs was” for “organs were”, “calculated in surviving animals 5 days” for “calculated 24 hours”

[2] = 24 hours after i.v. challenge (2×10^6 CFU)
[3] = survivors 5 days post i.v. challenge (1.8×10^7 CFU)

| Compound | lesions in tissues (histopathology) [1] | bactericidal/bacteriostatic activity (S. typhimurium) | Survival rate (S. typhimurium SL1344) | Liver Culture (S. typhimurium SL1344) [CFU/500 mg × 10^6] | Spleen Culture (S. typhimurium SL1344) [CFU/100 mg × 10^6] | Fecal Culture (Candida albicans Amb 23A; [2]) [CFU/pellet × 10^4] | Liver Culture (Candida albicans Amb 23A; [2]) [CFU/500 mg × 10^4] | Spleen Culture (Candida albicans Amb 23A; [2]) [CFU/100 mg × 10^3] | Survival rate (Candida albicans Amb 23A) | Fecal Culture (Candida albicans Amb 23A; [3]) [CFU/pellet × 10^4] | Liver Culture (Candida albicans Amb 23A; [3]) [CFU/500 mg × 10^4] | Spleen Culture (Candida albicans Amb 23A; [3]) [CFU/100 mg × 10^3] |
| --- | --- | --- | --- | --- | --- | --- | --- | --- | --- | --- | --- | --- |
| C[C@H]1CC[C@@H]2[C@@H](C)[C@H]3[C@H](C[C@H]4[C@@H]5CC=C6C[C@@H](O[C@@H]7O[C@H](CO)[C@@H](O[C@@H]8O[C@@H](C)[C@H](O)[C@@H](O)[C@H]8O)[C@H](O)[C@H]7O[C@@H]7O[C@@H](C)[C@H](O)[C@@H](O)[C@H]7O)CC[C@]6(C)[C@H]5CC[C@]34C)N2C1 [chaconine] | No lesions were observed in tissues from any dose group | neither bactericidal nor bacteriostatic | 6/8 | 1.8 ± 0.3 | 0.9 ± 0.1 | 0.02 ± 0.0 | 2.3 ± 0.1 | 0.6 ± 0.02 | 8/8 | 0.8 ± 0.3 | 0.9 ± 0.3 | 1.4 ± 1.0 |
| C[C@H]1CC[C@@H]2[C@@H](C)[C@H]3[C@H](C[C@H]4[C@@H]5CC=C6C[C@@H](O[C@@H]7O[C@H](CO)[C@H](O)[C@H](O[C@@H]8O[C@H](CO)[C@@H](O)[C@H](O)[C@H]8O)[C@H]7O[C@@H]7O[C@@H](C)[C@H](O)[C@@H](O)[C@H]7O)CC[C@]6(C)[C@H]5CC[C@]34C)N2C1 [solanine] | No lesions were observed in tissues from any dose group | neither bactericidal nor bacteriostatic | 3/8 | 1.4 ± 0.2 | 0.7 ± 0.1 | 0.1 ± 0.06 | 4.3 ± 0.1 | 0.9 ± 0.06 | 7/8 | 0.05 ± 0.02 | 0.4 ± 0.4 | 1.0 ± 0.6 |
